Assay results reported in the supplement of paper PMC10037445.
Where “and” joins values, the source holds several entries; their conditions need not be identical. Identical values can stand only once. Over roughly 2,900 compounds, “NF-kB SEAP reporter activity, fold change vs agonist alone” has its median near 0.99; the highest 2% begin near 2.6. Some of the results follow.

Columns and labels:
RAW-Dual [1] = experiment: NF-kB SEAP reporter activity, fold change vs agonist alone; cytotoxicity flag (confluency mask): not cytotoxic; higher = enhanced NF-kB activity
Procedure, shortened: (§1)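 RAW-Dual macrophages were seeded in DMEM at 50,000 cells/well in 384-well plates, given 50 nL of library stock by pin tool, and given a PRR agonist 1 h later. Plates were held at 37 °C, 5% CO2 for 20 hours, after which supernatant was read for IRF by QuantiLuc luminescence and for NF-κB by QuantiBlue absorbance at 620 nm. Reporter activity is expressed as fold change over wells that received agonist alone. A well was called cytotoxic when IncuCyte confluency fell below 70% of agonist controls in both mask sets.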

RAW-Dual [2] = experiment: NF-kB SEAP reporter activity, fold change vs agonist alone; higher = enhanced NF-kB activity; settings: library stock concentration (final ~1000-fold dilution): 10 mM
Procedure, shortened: as §1

RAW-Dual [3] = experiment: NF-kB SEAP reporter activity, fold change vs agonist alone; cytotoxicity flag (confluency mask): cytotoxic (confluency <70% of control); higher = enhanced NF-kB activity
Procedure, shortened: as §1

[4] = agonist: ODN 1826 (TLR9) 0.5 ug/mL
[5] = agonist: Pam2CSK4 (TLR2/6) 0.1 ug/mL
[6] = agonist: Pam3CSK4 (TLR2/1) 0.1 ug/mL
[7] = cytotoxicity flag (confluency mask): not cytotoxic, agonist: Imiquimod (TLR7) […]
[8] = cytotoxicity flag (confluency mask): not cytotoxic, agonist: MPLA (TLR4) […]

In the case of COc1cc2nccc(Oc3ccc(NC(=O)Nc4cc(C)on4)c(Cl)c3)c2cc1OC (library stock concentration (final ~1000-fold dilution): 10 mM), the “NF-kB SEAP reporter activity” value (RAW-Dual [1]; agonist: LPS (TLR4) 0.1 ug/mL) was 0.306, the “NF-kB SEAP reporter activity” value (RAW-Dual [1]; [4]) was 0.244 and the “NF-kB SEAP reporter activity” value (RAW-Dual [1]; [5]) was 0.095. For the same molecule, the “NF-kB SEAP reporter activity” value (RAW-Dual [1]; [6]) was 0.174.
COc1cc2nccc(Oc3ccc(NC(=O)Nc4cc(C)on4)c(Cl)c3)c2cc1OC was tested, and the “NF-kB SEAP reporter activity” value (RAW-Dual [2]; [7]) was 0.333 and the “NF-kB SEAP reporter activity” value (RAW-Dual [2]; [8]) was 0.365.
For CC(C)CC(NC(=O)C(O)C(N)Cc1ccccc1)C(=O)O (configuration not stated), the “NF-kB SEAP reporter activity” value (RAW-Dual [2]; [7]) was 0.903 and the “NF-kB SEAP reporter activity” value (RAW-Dual [2]; [8]) was 0.937.
With CC(C)CC(NC(=O)C(O)C(N)Cc1ccccc1)C(=O)O (configuration not stated) (library stock concentration (final ~1000-fold dilution): 10 mM) the “NF-kB SEAP reporter activity” value (RAW-Dual [1]; agonist: LPS (TLR4) 0.1 ug/mL) was 0.885, the “NF-kB SEAP reporter activity” value (RAW-Dual [1]; [4]) was 0.978 and the “NF-kB SEAP reporter activity” value (RAW-Dual [1]; [5]) was 1.05. For the same molecule, the “NF-kB SEAP reporter activity” value (RAW-Dual [1]; [6]) was 0.986.
For C=CCNC(N)=S, the “NF-kB SEAP reporter activity” value (RAW-Dual [2]; [8]) was 1.01.
For C=CCNC(N)=S (library stock concentration (final ~1000-fold dilution): 10 mM), the “NF-kB SEAP reporter activity” value (RAW-Dual [1]; agonist: LPS (TLR4) 0.1 ug/mL) was 0.949 and 1.31, the “NF-kB SEAP reporter activity” value (RAW-Dual [1]; [4]) was 1 and 1.13 and the “NF-kB SEAP reporter activity” value (RAW-Dual [1]; [5]) was 0.994 and 1.09. The “NF-kB SEAP reporter activity” value (RAW-Dual [1]; [6]) was 1.01 and 1.08.
With COc1cccc(-c2cc(=O)c3ccccc3o2)c1N the “NF-kB SEAP reporter activity” value (RAW-Dual [2]; [7]) was 0.644 and the “NF-kB SEAP reporter activity” value (RAW-Dual [2]; [8]) was 0.594.
With COc1cccc(-c2cc(=O)c3ccccc3o2)c1N (library stock concentration (final ~1000-fold dilution): 10 mM) the “NF-kB SEAP reporter activity” value (RAW-Dual [1]; agonist: LPS (TLR4) 0.1 ug/mL) was 0.529, the “NF-kB SEAP reporter activity” value (RAW-Dual [1]; [4]) was 0.771 and the “NF-kB SEAP reporter activity” value (RAW-Dual [1]; [5]) was 0.432. The “NF-kB SEAP reporter activity” value (RAW-Dual [1]; [6]) was 0.632.
For Cc1cc(CS(=O)(=O)c2ccccc2)cc(OCc2ccc(CN3CCCC3CO)cc2)c1 (configuration not stated) (library stock concentration (final ~1000-fold dilution): 10 mM), the “NF-kB SEAP reporter activity” value (RAW-Dual [1]; agonist: LPS (TLR4) 0.1 ug/mL) was 0.875, the “NF-kB SEAP reporter activity” value (RAW-Dual [1]; [4]) was 0.198 and the “NF-kB SEAP reporter activity” value (RAW-Dual [1]; [5]) was 1.06. For the same molecule, the “NF-kB SEAP reporter activity” value (RAW-Dual [1]; [6]) was 0.976.
Cc1cc(CS(=O)(=O)c2ccccc2)cc(OCc2ccc(CN3CCCC3CO)cc2)c1 (configuration not stated) was tested, and the “NF-kB SEAP reporter activity” value (RAW-Dual [2]; [7]) was 0.658 and the “NF-kB SEAP reporter activity” value (RAW-Dual [2]; [8]) was 1.18.
For CCc1cc(Nc2nccc(-c3c(-c4ccc(OC)c(C(=O)Nc5c(F)cccc5F)c4)nc4ccccn34)n2)c(OC)cc1N1CCC(N2CCN(S(C)(=O)=O)CC2)CC1 (library stock concentration (final ~1000-fold dilution): 10 mM), the “NF-kB SEAP reporter activity” value (RAW-Dual [1]; agonist: LPS (TLR4) 0.1 ug/mL) was 1.06, the “NF-kB SEAP reporter activity” value (RAW-Dual [1]; [4]) was 1.57 and the “NF-kB SEAP reporter activity” value (RAW-Dual [1]; [5]) was 0.741. For the same molecule, the “NF-kB SEAP reporter activity” value (RAW-Dual [1]; [6]) was 0.924.
CCc1cc(Nc2nccc(-c3c(-c4ccc(OC)c(C(=O)Nc5c(F)cccc5F)c4)nc4ccccn34)n2)c(OC)cc1N1CCC(N2CCN(S(C)(=O)=O)CC2)CC1 was tested, and the “NF-kB SEAP reporter activity” value (RAW-Dual [2]; [7]) was 1.04 and the “NF-kB SEAP reporter activity” value (RAW-Dual [2]; [8]) was 1.31.
For Cc1nc(Nc2n[nH]c3c2CN(C(=O)NC(CN(C)C)c2ccccc2)C3(C)C)c2sccc2n1 (configuration not stated) (library stock concentration (final ~1000-fold dilution): 10 mM), the “NF-kB SEAP reporter activity” value (RAW-Dual [3]; agonist: LPS (TLR4) 0.1 ug/mL) was 0.277, the “NF-kB SEAP reporter activity” value (RAW-Dual [3]; [4]) was 0.215 and the “NF-kB SEAP reporter activity” value (RAW-Dual [3]; [5]) was 0.0634. For the same molecule, the “NF-kB SEAP reporter activity” value (RAW-Dual [3]; [6]) was 0.15.
In the case of Cc1nc(Nc2n[nH]c3c2CN(C(=O)NC(CN(C)C)c2ccccc2)C3(C)C)c2sccc2n1 (configuration not stated), the “NF-kB SEAP reporter activity” value (RAW-Dual [2]; cytotoxicity flag (confluency mask): cytotoxic (confluency <70% of control), agonist: Imiquimod (TLR7) […]) was 0.392 and the “NF-kB SEAP reporter activity” value (RAW-Dual [2]; cytotoxicity flag (confluency mask): cytotoxic (confluency <70% of control), agonist: MPLA (TLR4) […]) was 0.218.
In the case of O=C1c2cccc3c2C(CCC3)CN1C1CN2CCC1CC2 (configuration not stated) (library stock concentration (final ~1000-fold dilution): 10 mM), the “NF-kB SEAP reporter activity” value (RAW-Dual [1]; agonist: LPS (TLR4) 0.1 ug/mL) was 1.5, the “NF-kB SEAP reporter activity” value (RAW-Dual [1]; [4]) was 0.937 and the “NF-kB SEAP reporter activity” value (RAW-Dual [1]; [5]) was 0.587. For the same molecule, the “NF-kB SEAP reporter activity” value (RAW-Dual [1]; [6]) was 0.339.
For O=C1c2cccc3c2C(CCC3)CN1C1CN2CCC1CC2 (configuration not stated), the “NF-kB SEAP reporter activity” value (RAW-Dual [2]; [7]) was 0.886 and the “NF-kB SEAP reporter activity” value (RAW-Dual [2]; [8]) was 1.17.
